Screen size: about 270,000 compounds; about 5,800 (2.1%) were called active. The shares of active, inactive and inconclusive entries below differ from those in the screen. Calls follow the shape of the dose curve; as a rule, active = well fitted inhibition curve with a large enough effect; inconclusive = small, poorly fitted or top-dose-only effect; inactive = flat fitted curve, though single readings scatter. Potencies beside an inconclusive call are fits to weak or partial responses and may not hold up.
These compounds were tested against Microtubule-associated protein tau (Homo sapiens) (UniProt P10636) (assay: qHTS for Inhibitors of Tau Fibril Formation, Thioflavin T Binding). Details: recombinant tau K18 P301L (four-repeat tau fragment), heparin-induced fibrillization, ThT fluorescence; series mostly up to 57.4 µM.
Sequence of UniProt P10636 (P10636 whole entry, looked up, the tested form may be a part): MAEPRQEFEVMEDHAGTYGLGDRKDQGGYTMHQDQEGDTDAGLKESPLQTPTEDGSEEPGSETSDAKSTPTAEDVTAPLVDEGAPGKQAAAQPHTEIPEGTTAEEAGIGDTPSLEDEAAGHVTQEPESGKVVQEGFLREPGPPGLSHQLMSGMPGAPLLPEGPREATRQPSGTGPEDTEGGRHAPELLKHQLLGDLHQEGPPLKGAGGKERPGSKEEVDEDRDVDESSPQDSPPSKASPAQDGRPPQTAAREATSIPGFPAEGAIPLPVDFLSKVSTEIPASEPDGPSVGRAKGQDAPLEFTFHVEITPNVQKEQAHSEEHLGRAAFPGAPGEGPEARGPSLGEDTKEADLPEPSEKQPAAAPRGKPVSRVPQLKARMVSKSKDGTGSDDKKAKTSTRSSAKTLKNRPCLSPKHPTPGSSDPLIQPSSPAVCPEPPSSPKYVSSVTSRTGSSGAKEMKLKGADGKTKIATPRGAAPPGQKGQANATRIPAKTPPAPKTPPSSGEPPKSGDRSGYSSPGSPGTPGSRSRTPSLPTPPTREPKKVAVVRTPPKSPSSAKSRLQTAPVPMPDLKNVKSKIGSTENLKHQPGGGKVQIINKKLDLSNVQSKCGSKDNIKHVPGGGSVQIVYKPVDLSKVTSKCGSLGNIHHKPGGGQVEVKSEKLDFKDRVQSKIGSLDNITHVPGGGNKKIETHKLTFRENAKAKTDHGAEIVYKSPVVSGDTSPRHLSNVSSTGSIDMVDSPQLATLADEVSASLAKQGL
In short: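 K18 P301L tau (15 uM + 0.24 uM Alexa 594-tagged), heparin 20 uM, NaOAc pH 7, 6 h 37 C; ThT 30 uM, 1 h RT, ex 450/em 510 nm.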
`N#Cc1c2n(c(=O)[nH]c1=O)CCCCC2` was tested, and the Potency was “inactive”.
`N#Cc1ccc(-c2cccnc2)nc1SCC(=O)c1ccccc1` was tested, and the Potency was active: 4.47 µM.
In the case of `COc1ccc(-n2c(NN)nc3sc4c(c3c2=O)CCCC4)cc1`, the Potency is reported as inconclusive: 39.8 µM [inhibitor, single point].
In the case of `O=C(Oc1ccc(-c2cnc3ccccc3n2)cc1)c1ccco1`, the Potency is reported as inconclusive: 2.51 µM [inhibitor, partial curve].
With `COc1ccc(CCC(=O)Nc2nc3c(s2)CN(C)CC3)cc1OC` the Potency was “inactive”.
`CCOC(=O)c1cnc2ccc(OCC)cc2c1Nc1cc(Cl)c(OC)cc1OC` was tested, and the Potency was inconclusive: 25.1 µM [inhibitor, single point].
With `CC(C)CC(=O)NC(=S)Nc1ccccc1N1CCCC1` the Potency was inconclusive: 20 µM [inhibitor, single point].
For `CC(C)Cn1cc(C(=O)N2CCN(c3cccc(Cl)c3)CC2)c2c3ccccc3n(C)c2c1=O`, the Potency was “inactive”.
For `Nc1c(-c2cccc(Cl)c2)cnn1-c1cccc(C(F)(F)F)c1`, the Potency was inconclusive: 25.1 µM [inhibitor, partial curve].
In the case of `COc1ccc(OC)c(CNc2sc3c(c2C(=O)Nc2cc(OC)ccc2OC)CCCC3)c1`, the Potency is reported as inconclusive: 12.6 µM [inhibitor, partial curve].
In the case of `CC(C)CN(/C=N/c1sc2c(c1C#N)CCCCC2)CC(C)C`, the Potency is reported as inconclusive: 8.91 µM [inhibitor, partial curve].
For `COc1ccc(OC)c(NC(=O)N2CCC(CN3CCCCC3)CC2)c1`, the Potency was “inactive”.
In the case of `CCOC(=O)C1CCCN(C/C(O)=C(\C#N)c2nc(-c3ccc(Cl)cc3)cs2)C1` (configuration not stated), the Potency is reported as inconclusive: 15.8 µM [inhibitor, partial curve].
With `Cc1c(C(=O)NCc2ccccc2Cl)sc2nc[nH]c(=O)c12` the Potency was “inactive”.
For `O=[N+]([O-])c1ccc(O)c(/C=N/Nc2nc3ccccc3[nH]2)c1`, the Potency was active: 8.91 µM.
With `CCC(CC)C(=O)Nc1nnc(-c2cccs2)s1` the Potency was “inactive”.
In the case of `COc1ccc(CCN/C=C2/CC(=O)NC2=O)cc1OC`, the Potency is reported as inconclusive: 39.8 µM [inhibitor, single point].
In the case of `CCOc1ccc(C(=O)Nc2ccc3oc(-c4cccnc4)nc3c2)cc1`, the Potency is reported as inconclusive: 0.501 µM [inhibitor, full curve].
In the case of `COc1ccc(S(=O)(=O)Nc2cc3c(cc2NCc2ccccc2)n(C)c(=O)n3C)cc1`, the Potency is reported as inconclusive: 15.8 µM [inhibitor, partial curve, poor fit].
With `CCOC(=O)C1=C(N)N2C(=O)C(C)SC2=C(C(=O)OCC)C1c1ccccc1` (configuration not stated) the Potency was inconclusive: 35.5 µM [inhibitor, partial curve].
In the case of `Cc1cccc(OCCSc2nc3ccc(NC(=O)COc4ccccc4)cc3s2)c1`, the Potency is reported as inconclusive: 0.251 µM [inhibitor, full curve, poor fit].
`CSc1nc(Oc2ccc3ccccc3c2)c2sccc2n1` was tested, and the Potency was inconclusive: 20 µM [inhibitor, partial curve].
`C/C(=N\Nc1cccc(Cl)c1)c1ccncc1` was tested, and the Potency was inconclusive: 17.8 µM [inhibitor, single point].
For `NNC(=O)c1ccc(CSc2nc3ccccc3s2)cc1`, the Potency was inconclusive: 7.94 µM [inhibitor, partial curve].
For `CCCN1CCc2nc(N3CCN(c4ncccn4)CC3)ncc2C1`, the Potency was inconclusive: 22.4 µM [inhibitor, single point].
With `CCC(=O)Nc1ccc(Nc2ccccc2)cc1` the Potency was inconclusive: 14.1 µM [inhibitor, partial curve].
`CC1CCC(C(C)C)C(OCC(O)C[N+]2(C)CCCCC2)C1` (configuration not stated) was tested, and the Potency was “inactive”.
`O=C(CSCc1c(Cl)cccc1Cl)NCc1ccco1` was tested, and the Potency was “inactive”.
`COc1cccc2c1Oc1ncccc1N(C(=O)CCC(=O)NCc1ccc(C)cc1)C2` was tested, and the Potency was “inactive”.
For `CCOc1ccc(-n2c(Cc3cc(=O)[nH]c(=O)[nH]3)nnc2SCc2cccnc2)cc1`, the Potency was “inactive”.
With `COc1ccccc1NC(=O)c1c(N=Cc2c(O)ccc3ccccc23)cnn1C` the Potency was inconclusive: 17.8 µM [inhibitor, partial curve].
For `O=C(C1CCN(Cc2ccc(OCc3ccccc3)cc2)CC1)N1CCCC1`, the Potency was “inactive”.
With `Cc1ccc(-c2nn(-c3ccccc3)cc2C=C2C(=O)CC(C)(C)CC2=O)cc1` the Potency was inconclusive: 39.8 µM [inhibitor, single point].
For `CCc1ccc(N(C)S(=O)(=O)c2ccc3[nH]cc(C(=O)NCC4CCCO4)c(=O)c3c2)cc1` (configuration not stated), the Potency was “inactive”.
In the case of `Cc1cccc(OCC(=O)N2CCOCC2)c1`, the Potency is reported as “inactive”.
For `N=C1/C(=C/c2ccc(-c3cccc(C(=O)O)c3)o2)C(=O)N=C2SC=C(c3ccccc3)N12`, the Potency was active: 4.47 µM.
`COc1ccc(C(=O)/C=C/Nc2ccccn2)cc1` was tested, and the Potency was inconclusive: 2.51 µM [inhibitor, full curve, poor fit].
With `Cc1c(NC(NC(=O)CC(C)C)C(Cl)(Cl)Cl)c(=O)n(-c2ccccc2)n1C` (configuration not stated) the Potency was “inactive”.
With `c1ccc(-c2nccc(-c3ccc4c(c3)OCO4)n2)cc1` the Potency was inconclusive: 22.4 µM [inhibitor, partial curve].
For `OCC1O[C@H](O)C(Cl)C(O)C1O` (some centres not stated), the Potency was “inactive”.
For `C[C@@H]1CC[C@]2(C(=O)O)CC[C@]3(C)C(=CCC4[C@@]5(C)C[C@@H](O)[C@H](O)[C@@](C)(CO)C5[C@H](O)C[C@]43C)C2[C@H]1C` (some centres not stated), the Potency was “inactive”.
With `Cc1ccc(C(=O)n2cnnc2N)cc1C` the Potency was inconclusive: 31.6 µM [inhibitor, single point].
`Cc1ccc(Nc2ccc(C(=O)NCCc3ccccc3)cn2)cc1` was tested, and the Potency was inconclusive: 3.16 µM [inhibitor, full curve].
`O=C(Nc1nc(-c2ccccn2)cs1)c1ccc(Cl)s1` was tested, and the Potency was inconclusive: 28.2 µM [activator, single point].
`O=C(Cc1ccc([N+](=O)[O-])cc1)N/N=C/c1ccc([N+](=O)[O-])o1` was tested, and the Potency was inconclusive: 22.4 µM [inhibitor, single point].
With `CCOCCCn1c(=S)[nH]c2cc(C(=O)NCC(OC)OC)ccc2c1=O` the Potency was “inactive”.
In the case of `Cc1ccc(NC(=O)C[n+]2ccn(C3=C([O-])c4ccccc4C3=O)c2)cc1`, the Potency is reported as inconclusive: 11.2 µM [inhibitor, partial curve].
Also: nearly all actives have a fitted effect of over 55% in size.
Potency is read from the fitted curve at half-maximal effect; tags tell the direction and shape of the fitted curve.
